# The whole screen tested about 310,000 compounds, of which about 14,000 (4.5%) showed an effect of 50% or more. Effects have a minus sign here. The list shows a part of the results. Where a SMILES comes first, the peptide text is derived from it. The star is where a group is joined. Boc = CC(C)(C)OC(=O)*
# Molecular target: human ether-à-go-go-related gene (hERG) potassium channel (human, UniProt Q12809)
# Assay: primary screen, population patch clamp on CHO cells stably expressing hERG
# 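Further: peak tail current of the secondary pulse compared with the same well before compound.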
# human ether-à-go-go-related gene (hERG) potassium channel, sequence (Q12809 whole entry, looked up): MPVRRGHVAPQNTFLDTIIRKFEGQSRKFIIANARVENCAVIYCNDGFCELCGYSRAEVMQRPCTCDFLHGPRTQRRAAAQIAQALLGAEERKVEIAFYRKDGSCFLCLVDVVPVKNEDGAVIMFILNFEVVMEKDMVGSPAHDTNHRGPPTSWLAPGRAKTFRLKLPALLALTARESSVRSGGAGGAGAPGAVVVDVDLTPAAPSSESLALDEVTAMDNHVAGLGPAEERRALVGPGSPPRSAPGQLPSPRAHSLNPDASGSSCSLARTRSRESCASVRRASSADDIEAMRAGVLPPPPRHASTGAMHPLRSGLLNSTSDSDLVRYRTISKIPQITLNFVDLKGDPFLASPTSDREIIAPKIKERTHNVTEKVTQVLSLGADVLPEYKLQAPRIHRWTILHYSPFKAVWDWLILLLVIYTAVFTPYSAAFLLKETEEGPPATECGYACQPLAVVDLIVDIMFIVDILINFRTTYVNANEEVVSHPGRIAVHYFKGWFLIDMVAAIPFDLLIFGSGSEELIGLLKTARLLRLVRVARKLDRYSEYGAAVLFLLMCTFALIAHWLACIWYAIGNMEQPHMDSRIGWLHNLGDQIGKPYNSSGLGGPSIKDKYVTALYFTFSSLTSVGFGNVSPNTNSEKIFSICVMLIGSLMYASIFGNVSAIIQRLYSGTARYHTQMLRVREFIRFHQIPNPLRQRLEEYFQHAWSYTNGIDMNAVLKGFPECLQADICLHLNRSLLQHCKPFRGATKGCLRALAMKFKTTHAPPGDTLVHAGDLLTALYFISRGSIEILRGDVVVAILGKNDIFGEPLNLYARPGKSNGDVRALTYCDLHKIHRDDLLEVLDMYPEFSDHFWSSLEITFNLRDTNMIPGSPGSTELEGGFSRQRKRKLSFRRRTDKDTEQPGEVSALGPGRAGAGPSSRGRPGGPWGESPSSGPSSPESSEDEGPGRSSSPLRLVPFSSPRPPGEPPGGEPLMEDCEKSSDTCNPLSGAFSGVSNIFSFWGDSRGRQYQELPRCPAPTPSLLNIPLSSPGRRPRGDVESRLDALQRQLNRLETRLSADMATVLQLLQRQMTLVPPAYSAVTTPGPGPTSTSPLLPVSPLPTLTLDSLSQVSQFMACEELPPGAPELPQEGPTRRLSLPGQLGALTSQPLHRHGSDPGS
row,Compound,"hERG current change (%, negative = inhibition) at 10uM"
1,COC(=O)c1ccccc1NC(=O)C1=CC(c2cccs2)=NS(=O)(=O)N1C,-8.31%
2,CC(C)C[C@H](NC(=O)c1nc[nH]c1C(=O)NC1CCN(C(=O)OC(C)(C)C)CC1)C(=O)OCc1ccccc1,3.48%
3,COCCCNS(=O)(=O)c1ccccc1,0.287%
4,O=C(/C=C/NNC(=O)c1cccc(Br)c1)c1cccc(Br)c1,15.6%
5,CCOC(=O)c1cccc(NC(=O)CSc2nc3cccnc3n2C)c1,-37.8%
6,Cc1ccc(C(=O)/C=C/c2ccco2)c(O)c1,12.6%
7,Cc1ccc(C(C(=O)NC2CCCCC2)N(CC2CCCO2)C(=O)CNC(=O)c2ccco2)cc1 (stereo not drawn),-19.1%
8,CCOC(=O)c1c(C)[nH]c(C(=O)COC(=O)COc2ccccc2C=O)c1C,-15.7%
9,Cc1csc(/C(C#N)=N/O)n1,10.2%
10,CCC(C)c1ccccc1NC(=O)c1cc(C)no1 (stereo not drawn),25.8%
11,O=C(O)c1c2c(nc3ccccc13)/C(=C/c1c(F)cccc1F)CCC2,17.3%
12,CCN(CC)S(=O)(=O)c1ccc(N2CCCC2)c(NS(=O)(=O)c2ccccc2)c1,-7.76%
13,CC(C)(O)c1nnn(-c2ccccc2)c1C(F)(F)F,8.31%
14,Cc1cccc(N2CCN(C(=O)CN3C(=O)C4CC=CCC4C3=O)CC2)c1C (stereo not drawn),12.3%
15,COc1ccc(/C(C)=N/NC(=O)CNC(=O)c2ccncc2)c(OC)c1,3.47%
16,O=S(=O)(c1ccc(=S)[nH]c1)N1CCCCCC1,13.4%
17,Cc1sc2ncnc(N3CCOCC3)c2c1C,-13.7%
18,Cc1c(C(=O)NCc2ccc(F)cc2)oc2ccc(S(=O)(=O)N3CCOCC3)cc12,1.64%
19,c1ccc(C[C@H]2CN=C(Nc3ccccc3)N2CC2CCC2)cc1,-63%
20,COc1ccc(-n2c(=O)c3c4c(sc3n3c(=S)[nH]nc23)CCC4)cc1,14%
21,CCC1(c2ccccc2)NC(=O)N(CC(=O)NCc2ccc(F)cc2)C1=O (stereo not drawn),18.7%
22,O=C(Nc1cccc2c1CCCC2)c1ccc(Cl)c([N+](=O)[O-])c1,5.81%

row,Compound,"hERG current change (%, negative = inhibition) at 10uM"
1,Cc1nc(CCl)cc(=O)[nH]1,7.38%
2,COc1ccc2c(C)cc(N3CCN(Cc4ccccc4)CC3)nc2c1,-29.6%
3,CCOC(=O)c1c(NC(=O)CSc2nnc(-c3c[nH]c4ccccc34)n2CCOC)sc2c1CCCC2,12.7%
4,O=C(CCc1ccc(S(=O)(=O)NC2CCCCC2)cc1)Nc1ccccc1,14.6%
5,Cc1cc(COc2ccccc2O)on1,10.6%
6,CN(C)S(=O)(=O)N(CC(=O)Nc1cccc(F)c1)c1ccccc1,-7.72%
7,Cc1nnc(NC(=O)CSc2nnc(CNC(=O)c3ccc(F)cc3)o2)s1,24.3%
8,Cc1cc(C)n2cc(CSc3ccc(Cl)cc3)nc2n1,-64.9%
9,Cc1cc(OCC(=O)Nc2ccccc2N2CCOCC2)c(C(C)C)cc1Cl,13.6%
10,O=C(Cc1ccccc1)NNS(=O)(=O)c1ccc(F)cc1,20.9%
11,CCNC(=S)/N=C(/Nc1ccc(OC)cc1)Nc1nc(C)cc(C)n1,-4.84%
12,O=C(Nc1cc(=O)[nH]c(=O)[nH]1)c1cccc(Br)c1,21.9%
13,O=C(O)c1[nH]c2ccc(Cl)cc2c1CC(=O)N1CCN(C(=O)c2ccco2)CC1,18.4%
14,Cn1c(-c2ccc(CN3CCCCC3)o2)nc2ccccc21,-40.2%
15,c1ccc(C(c2ccccc2)N2CCN(Cc3nnnn3C3CCCCC3)CC2)cc1,2.15%
16,Nc1c(C(O)(C(F)(F)F)C(F)(F)F)cc(C(O)(C(F)(F)F)C(F)(F)F)c2ccccc12,17.6%
17,O=C(CC1CC2CCC1C2)Nc1nc(-c2ccccn2)cs1 (stereo not drawn),-23.6%
18,N=c1c2ccccc2nc2n1CCCCCCCCCCC2,-62%
19,Cc1cnc(CN(C)C(=O)C2CCC(=O)N(CCc3cccc(F)c3)C2)[nH]1 (stereo not drawn),16.1%
20,CCCCSCCCNC(=O)c1cn(C)c2ccc(S(=O)(=O)N3CCCC3)cc2c1=O,11.2%
21,O=C1CCCc2ccccc2N1Cc1ccc(Cl)cc1Cl,-18.2%
22,O=C(NCCCn1ccnc1)/C(=C\c1ccc(Br)cc1)NC(=O)c1ccccc1F,-74.3%

row,Compound,"hERG current change (%, negative = inhibition) at 10uM"
1,COc1cccc(C2=NOC(C(=O)Nc3cc(C)on3)C2)c1 (stereo not drawn),-4.7%
2,CC(=O)N1c2ccccc2CCc2ccc(N)cc21.Cl,4.59%
3,Cc1ccc(C)c(OCC(=O)Nc2ccc(C(=O)O)cc2NC(=O)COc2cc(C)ccc2C)c1,7.19%
4,CC(C)NC(=S)N/N=C/c1ccc(N2CCOCC2)cc1,20%
5,COc1ccc(NC(=O)c2ccc(-c3ccccc3C(F)(F)F)o2)cc1,0.954%
6,Cc1cc(C)n(-c2nc(N(C)C)nc(N3CCOCC3)n2)n1,-6.78%
7,O=C(CN1CCN(S(=O)(=O)c2ccc3ccccc3c2)CC1)NC(=O)NC1CCCCC1,-0.0734%
8,O=C(Nc1ccc2c(c1)OCO2)[C@@H]1CCCN1S(=O)(=O)c1cccc2cccnc12,-6.18%
9,O=c1c2c(O)cc(O)cc2oc2ccc(O)c(O[C@@H]3O[C@H](CO)[C@@H](O)[C@H](O)[C@H]3O[C@H]3O[C@H](CO)[C@@H](O)[C@H](O)[C@H]3O)c12,9.28%
10,CSc1ccccc1NC(=O)CSc1nncs1,33.9%
11,CN(CC(=O)Nc1ccc(Cl)c(Cl)c1)C(=O)CC1OC(=O)c2ccccc21 (stereo not drawn),-70.3%
12,Cl.O=[N+]([O-])c1ccc(N2CCN(Cc3ccccc3)CC2)nc1,-59%
13,COc1ccc(CNc2ccc(C(=O)O)cc2)cc1,14.1%
14,O=C(CN(C(=O)CCC(=O)Nc1nccs1)C1CCCC1)NCc1ccc2c(c1)OCO2,-3.87%
15,CCOC(=O)CSc1nnc([C@H](C)NC(=O)OC(C)(C)C)o1,7.7%
16,Cc1ccc(OCCNC(=O)CCc2ccccc2)cc1C,-20.7%
17,COc1cc(Cl)c(C)cc1NC(=O)CSc1nnc(-c2ccco2)n1CC(C)C,-62.1%
18,Fc1ccccc1COc1ccc(C(=S)N2CCCC2)cc1,13%
19,COc1ccc(/C=C2/SC(=O)N(CCC(=O)Nc3ccccc3C(=O)O)C2=S)cc1,13.5%
20,Cc1ccc(NC2CCCN(C(=O)c3snnc3C)C2)cc1C (stereo not drawn),0.46%
21,CCn1c(-c2cc(-c3cccc(OC)c3)nc3ccccc23)n[nH]c1=S,1.56%
22,OCCC1CN(Cc2cccn2-c2ncccn2)CCN1CCc1ccccc1 (stereo not drawn),-68.2%

row,Compound,"hERG current change (%, negative = inhibition) at 10uM"
1,O=C(NNC(=O)c1cccs1)c1ccc(F)cc1,26%
2,COC(=O)c1nnn(-c2ccccc2)c1N,-7.91%
3,O=C(c1cccc([N+](=O)[O-])c1)N1CCOCC1,11.7%
4,CCOC(=O)N1CCN(Cc2nc3c(c(=O)[nH]c(=O)n3C)n2Cc2cc(C)ccc2C)CC1,-17.6%
5,CC1(C(=O)NC(=S)N(CCC#N)c2ccccc2)CC1(Cl)Cl (stereo not drawn),-5.35%
6,CN(Cc1ccccc1)C(=O)c1ccccc1NC(=O)C1CC1,-5.76%
7,C[C@@H](CN1C2=NC[C@H](Cc3ccc(O)cc3)N2C[C@H]1Cc1ccc(O)cc1)NC(=O)CCC1CCCCC1,-10.3%
8,O=C(c1cnn2c(C(F)F)cc(-c3ccccc3)nc12)N1CCc2ccccc2C1,-15.6%
9,COc1ccc(N2CCN(C(=O)CSc3nnc4ncccn34)CC2)cc1,-6.38%
10,O=C(CCCNS(=O)(=O)c1ccc(F)cc1)Nc1ccc(F)cc1,3.97%
11,COc1ccc(N2C(=O)CC(N3CCC(O)(c4ccc(Br)cc4)CC3)C2=O)cc1 (stereo not drawn),-29.6%
12,Cn1ccnc1SCC(=O)N(C1CCCCC1)C1CCCCC1,3.29%
13,CCOc1ccc(-n2cc(C(=O)N3CCCCCC3)c3cc(OC)c(OC)cc3c2=O)cc1,-9.18%
14,Cc1ccc2nc(CCl)[n+]([O-])c(-c3ccccc3)c2c1,1.16%
15,Cn1cccc1Cc1nnc(SCC(=O)Nc2cccc(F)c2)n1-c1ccc(F)cc1,-24.7%
16,CCC(C)C(NC(=O)C(C)NC(=O)CNC(=O)OC(C)(C)C)C(N)=O (stereo not drawn) (Boc-Gly-Ala-Ile-NH2; configuration not given here),22.6%
17,Cc1ccc(N=C2SC(C(=O)O)CC(=O)N2C)cc1C (stereo not drawn),11.8%
18,CC1CCc2c(sc3nn[nH]c(=O)c23)C1 (stereo not drawn),-12.4%
19,CC(NC(=O)/C(=C\c1cccc([N+](=O)[O-])c1)NC(=O)c1ccco1)C(=O)O (stereo not drawn),39.2%
20,COc1ccc(CNC(=O)Cn2nc(C(F)(F)F)c(Br)c2C)cc1,-1.49%
21,NS(=O)(=O)c1ccc(CNC(=O)c2cc(-c3cccnc3)nc3ccc(Br)cc23)cc1,14.6%

# Reference: paper PMC4336329 (PLoS ONE, 2015)
